Experimental data from the supplement of paper PMC11876631.
± gives the standard deviation of the averaged measurements. Laboratory Escherichia coli strains with one amino-acid change in an essential protein, pooled on minimal glucose agar with carbenicillin or gentamicin at twice the control MIC (plus kanamycin and chloramphenicol for the plasmids), 48 h. Fold change of barcode share against drug-free plates; higher = less susceptible. Active = above 20 in both replicates (the paper's putatively resistant). '<' = one read or none on drug, '>' = one read or none on a drug-free plate. Shares are relative, so most strains fall below 1 when a few take over. Listed are strains with at least 15 reads on both drug-free plates, and hits; most hits rest on fewer reference reads. Replicate rank correlation about 0.5. Edits are read from barcodes.

B1: aroA F391A (protein)
chain: MESLTLQPIARVDGTINLPGSKSVSNRALLLAALAHGKTVLTNLLDSDDVRHMLNALTALGVSYTLSADRTRCEIIGNGGPLHAEGALELFLGNAGTAMRPLAAALCLGSNDIVLTGEPRMKERPIGHLVDALRLGGAKITYLEQENYPPLRLQGGFTGGNVDVDGSVSSQFLTALLMTAPLAPEDTVIRIKGDLVSKPYIDITLNLMKTFGVEIENQHYQQFVVKGGQSYQSPGTYLVEGDASSASYFLAAAAIKGGTVKVTGIGRNSMQGDIRFADVLEKMGATICWGDDYISCTRGELNAIDMDMNHIPDAAMTIATAALFAKGTTTLRNIYNWRVKETDRLFAMATELRKVGAEVEEGHDYIRITPPEKLNFAEIATYNDHRMAMCASLVALSDTPVTILDPKCTAKTFPDYFEQLARISQAA
B2: kdsA I112Q (protein)
chain: MKQKVVSIGDINVANDLPFVLFGGMNVLESRDLAMRICEHYVTVTQKLGIPYVFKASFDKANRSSIHSYRGPGLEEGMKIFQELKQTFGVKIITDVHEPSQAQPVADVVDVQQLPAFLARQTDLVEAMAKTGAVINVKKPQFVSPGQMGNIVDKFKEGGNEKVILCDRGANFGYDNLVVDMLGFSIMKKVSGNSPVIFDVTHALQCRDPFGAASGGRRAQVAELARAGMAVGLAGLFIEAHPDPEHAKCDGPSALPLAKLEPFLKQMKAIDDLVKGFEELDTSK
B3: kdsA V96A (protein)
chain: MKQKVVSIGDINVANDLPFVLFGGMNVLESRDLAMRICEHYVTVTQKLGIPYVFKASFDKANRSSIHSYRGPGLEEGMKIFQELKQTFGVKIITDAHEPSQAQPVADVVDVIQLPAFLARQTDLVEAMAKTGAVINVKKPQFVSPGQMGNIVDKFKEGGNEKVILCDRGANFGYDNLVVDMLGFSIMKKVSGNSPVIFDVTHALQCRDPFGAASGGRRAQVAELARAGMAVGLAGLFIEAHPDPEHAKCDGPSALPLAKLEPFLKQMKAIDDLVKGFEELDTSK
B4: kdsA V200P (protein)
chain: MKQKVVSIGDINVANDLPFVLFGGMNVLESRDLAMRICEHYVTVTQKLGIPYVFKASFDKANRSSIHSYRGPGLEEGMKIFQELKQTFGVKIITDVHEPSQAQPVADVVDVIQLPAFLARQTDLVEAMAKTGAVINVKKPQFVSPGQMGNIVDKFKEGGNEKVILCDRGANFGYDNLVVDMLGFSIMKKVSGNSPVIFDPTHALQCRDPFGAASGGRRAQVAELARAGMAVGLAGLFIEAHPDPEHAKCDGPSALPLAKLEPFLKQMKAIDDLVKGFEELDTSK
B5: kdsB V5A (protein)
chain: MSFVAIIPARYASTRLPGKPLVDINGKPMIVHVLERARESGAERIIVATDHEDVARAVEAAGGEVCMTRADHQSGTERLAEVVEKCAFSDDTVIVNVQGDEPMIPATIIRQVADNLAQRQVGMATLAVPIHNAEEAFNPNAVKVVLDAEGYALYFSRATIPWDRDRFAEGLETVGDNFLRHLGIYGYRAGFIRRYVNWQPSPLEHIEMLEQLRVLWYGEKIHVAVAQEVPGTGVDTPEDLERVRAEMR
B6: kdsB V5Q (protein)
chain: MSFVQIIPARYASTRLPGKPLVDINGKPMIVHVLERARESGAERIIVATDHEDVARAVEAAGGEVCMTRADHQSGTERLAEVVEKCAFSDDTVIVNVQGDEPMIPATIIRQVADNLAQRQVGMATLAVPIHNAEEAFNPNAVKVVLDAEGYALYFSRATIPWDRDRFAEGLETVGDNFLRHLGIYGYRAGFIRRYVNWQPSPLEHIEMLEQLRVLWYGEKIHVAVAQEVPGTGVDTPEDLERVRAEMR
B7: kdsB V47A (protein)
chain: MSFVVIIPARYASTRLPGKPLVDINGKPMIVHVLERARESGAERIIAATDHEDVARAVEAAGGEVCMTRADHQSGTERLAEVVEKCAFSDDTVIVNVQGDEPMIPATIIRQVADNLAQRQVGMATLAVPIHNAEEAFNPNAVKVVLDAEGYALYFSRATIPWDRDRFAEGLETVGDNFLRHLGIYGYRAGFIRRYVNWQPSPLEHIEMLEQLRVLWYGEKIHVAVAQEVPGTGVDTPEDLERVRAEMR
B8: kdsB V5P (protein)
chain: MSFVPIIPARYASTRLPGKPLVDINGKPMIVHVLERARESGAERIIVATDHEDVARAVEAAGGEVCMTRADHQSGTERLAEVVEKCAFSDDTVIVNVQGDEPMIPATIIRQVADNLAQRQVGMATLAVPIHNAEEAFNPNAVKVVLDAEGYALYFSRATIPWDRDRFAEGLETVGDNFLRHLGIYGYRAGFIRRYVNWQPSPLEHIEMLEQLRVLWYGEKIHVAVAQEVPGTGVDTPEDLERVRAEMR

The proteins below were run against Escherichia coli (laboratory strain) (assay: barcode share on antibiotic plates over drug-free plates; higher = less susceptible). Details: antibiotic: carbenicillin; 2× MIC (3.1 µg/mL).
Description: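 A pool of E. coli strains, each edited to carry one amino-acid change in an essential protein, was grown for 48 h on minimal glucose agar with or without antibiotic; strain barcodes were sequenced; mean of two replicates.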
For B1, the “fold change of barcode share” value was 0.583 ± 0.14. In the case of B2, the “fold change of barcode share” value is reported as 0.286 ± 0.095. B3 was tested, and the “fold change of barcode share” value was 0.467 ± 0.36. With B4 the “fold change of barcode share” value was 0.228 ± 0.057. For B5, the “fold change of barcode share” value was 0.178 ± 0.0075. In the case of B6, the “fold change of barcode share” value is reported as 0.611 ± 0.086. In the case of B7, the “fold change of barcode share” value is reported as 0.348 ± 0.21. B8 was tested, and the “fold change of barcode share” value was 0.277 ± 0.047.

Same assay, conditions: antibiotic: gentamicin; 2× MIC (MIC 0.45 µg/mL)
For B2, the “fold change of barcode share” value was under 0.00373. With B3 the “fold change of barcode share” value was under 0.00679. With B5 the “fold change of barcode share” value was 0.004838 ± 1.1e-05. For B7, the “fold change of barcode share” value was under 0.0126. In the case of B8, the “fold change of barcode share” value is reported as 0.124 ± 0.15.
